PMC6030096, “Synergy of Physico-chemical and Biological Experiments for Developing a Cyclooxygenase-2 Inhibitor” (Scientific Reports, 2018)
Like-named read-outs stand apart in the source and are kept apart here.

Columns and labels:
[1] = Rat pharmacokinetic study; type: in vivo; settings: for half-life: ip, 10 mg/kg
Procedure: The blood samples were withdrawn from jugular vein at an interval of 30, 45, 60 min and 2, 3, 4, 6, 8, 11, 24 h. The plasma fraction was obtained by centrifugation at 4 °C, 8000 rpm for 6 min and stored at −20 °C. The samples for LC-MS were prepared by using protein precipitation method.
The in vivo pharmacokinetic properties were evaluated using male wistar rat (250–300 g). The compound at 10 mg kg^−1 dose was suspended in 0.1% CMC and administered intraperitonealy to the rats. The animals were anesthetized with ketamine (50 mg kg^−1 i.p). The blood samples were withdrawn from jugular vein at an interval of 30, 45, 60 min and 2, 3, 4, 6, 8, 11, 24 h of drug administration and collected in heparinised tubes. Samples were withdrawn in triplicate (3 samples/time interval). 100 μL of blood sample was withdrawn at each interval from one animal. The plasma fraction was obtained by centrifugation at 4 °C, 8000 rpm for 6 min. The samples were stored at −20 °C. The samples for LC-MS were prepared by using protein precipitation method. 100 μL plasma sample was taken in 1.5 mL tube and vortex for 3 min. 300 μL acetonitrile with internal standard was added to the above tube and vortex for 5 min. The contents of the tube were centrifuged at 4 °C, 16000 rpm for 40 min. The compound with initial concentration 3 mg mL^−1 followed by serial dilution was used for obtaining standard curve. LC-MS was performed with Dionex ultimate 3000 HPLC system attached to Bruker MicroTof QII mass spectrometer. 50 mm, 5 μm PRP C18 column was used for HPLC and the gradient mobile phase was consisting of water and acetonitrile (each containing 0.1% formic acid). […] The column eluent was introduced to the ESI source of mass spectrometer operating in +ve mode. The different pharmacokinetic parameters such as t½ lives (min), AUC (area under curve), Cmax (µg/ml), tmax (min), mean residence time (min) were determined following non compartmental analysis in PK solver software.

[2] = tested on: carrageenan induced paw edema; assay: Carrageenan induced paw edema, effect on pre-existing inflammation; type: in vivo, rat; settings: 10 mg kg^−1 ip 60 min after carrageenan
Procedure: Paw thickness (mm) was used as an index of inflammation and measured at 30 min, 1 h, 2 h, 3 h, 4 h, 5 h, 6 h, 8 h, and 24 h after the carrageenan injection.
Paw thickness (mm) was used as index of inflammation and measured at 30 min, 1 h, 2 h, 3 h, 4 h, 5 h, 6 h, 8 h, and 24 h after the carrageenan injection.

[3] = tested on: COX, LOX, nitric oxide pathways and calcium channel; assay: Mode of action study in acetic acid writhing (pretreatment with substance P, L-arginine, L-NAME, A23187); type: in vivo; settings: rat
Procedure: All the doses were administered intraperitoneally.
Substance P is known for activating COX and LOX[30].
All the drugs were administered intraperitoneally.
For investigating the involvement of calcium channel, the animals were pretreated with A23187.

[4] = Acute toxicity study (oral, 14 days); settings: mouse, in vivo, po
mice = assay: Acute toxicity study (oral, 14 days)
[5] = tested on: acetic acid induced writhings in rat; assay: Acetic acid induced writhing (analgesic activity)
[6] = male, Wistar, plasma, 10 mg/kg ip

Which “t1/2 (half-life)” value ([1]; 10 mg kg^−1 ip) does the source give for `O=C1NC(=O)C(=Cc2cn(C[C@H](O)Cn3c4ccccc4c(=O)c4ccccc43)c3ccccc23)C(=O)N1` [(S)-3a] here?
Its value is ~ 7.5 h.

And the “concentration of the compound in the serum after 24 h” value ([1]; 10 mg kg^−1 ip, 24 h)?
Its value is “appreciable concentration”.

And the AUC(0-t) [1, 6]?
Its AUC(0-t) is 347 µg·h/mL.

And the Cmax [1, 6]?
The Cmax was 26100 ng/mL.

What about the Tmax [1, 6] of the same compound?
The Tmax was 4 h.

And the AUC(0-inf) ([1]; male, Wistar, plasma, 10 mg/kg ip, read-out: AUC 0-inf_obs (converted))?
Its AUC(0-inf) is 399 µg·h/mL.

What about the MRT inf ([1]; male, Wistar, plasma, 10 mg/kg ip, read-out: MRT 0-inf_obs (converted)) of the same compound?
The MRT inf was 11.7 h.

What about the half-life ([1]; male, Wistar, plasma, 10 mg kg^−1 ip, read-out: t1/2 (half-life) (converted)) of the same compound?
The half-life was 7.5 h.

And the half-life ([1]; male, Wistar, plasma, 10 mg/kg ip, read-out: t1/2)?
Its half-life is 7.57 h.

And the “effect on pre-existing paw edema (paw thickness)” value ([2]; after 5 h of treatment)?
Its value is “decrease paw edema”.

What about the “duration of decrease in paw edema” value ([2]; after 24 h of treatment) of the same compound?
The value was “sustained even after 24 h”.

And the “analgesic effect after pretreatment with L-arginine, L-NAME and A23187” value [3]?
Its value is “did not affect”.

And the “analgesic effect after pretreatment with substance P” value [3]?
The value was “attenuated the analgesic effect”.

What about the MTD at 14 days [4] of the same compound?
The MTD at 14 days was 2000 mg/kg.

And the “serum creatinine, BUN, uric acid, creatinine kinase, ALT, AST, ALP, cholesterol vs untreated” value (mice; oral 2000 mg kg^−1)?
Its value is “did not produce any significant alterations”.

What about the “behavioural abnormality or mortality” value (mice; oral 50, 300 and 2000 mg kg^−1, 14 days) of the same compound?
The value was “No gross behavioural abnormality or mortality”.

What about the “body weight vs normal animals” value (mice; oral, 14 days) of the same compound?
The value was “did not observe changes”.

What about the “histological sections (myocardium, kidney, liver) vs control” value (mice; oral, day 14) of the same compound?
The value was “no remarkable alterations”.

What about the “decrease in number of acetic acid induced writhing” value ([5]; 10 mg kg^−1 ip) of the same compound?
The value was 50%.

And the “effect on number of acetic acid induced writhing vs control” value ([5]; ip)?
The value was “significantly decreased”.
